Laboratory results taken from PMC4336329 (PLoS ONE, 2015).
About 2,200 (0.71%) of roughly 310,000 compounds showed an effect of 50% or more. Effects have a minus sign here. Some of the results follow.

What follows are compounds tested against human ether-à-go-go-related gene (hERG) potassium channel (human, UniProt Q12809) (assay: primary screen, population patch clamp on CHO cells stably expressing hERG).
Chain of human ether-à-go-go-related gene (hERG) potassium channel (Q12809 whole entry, looked up): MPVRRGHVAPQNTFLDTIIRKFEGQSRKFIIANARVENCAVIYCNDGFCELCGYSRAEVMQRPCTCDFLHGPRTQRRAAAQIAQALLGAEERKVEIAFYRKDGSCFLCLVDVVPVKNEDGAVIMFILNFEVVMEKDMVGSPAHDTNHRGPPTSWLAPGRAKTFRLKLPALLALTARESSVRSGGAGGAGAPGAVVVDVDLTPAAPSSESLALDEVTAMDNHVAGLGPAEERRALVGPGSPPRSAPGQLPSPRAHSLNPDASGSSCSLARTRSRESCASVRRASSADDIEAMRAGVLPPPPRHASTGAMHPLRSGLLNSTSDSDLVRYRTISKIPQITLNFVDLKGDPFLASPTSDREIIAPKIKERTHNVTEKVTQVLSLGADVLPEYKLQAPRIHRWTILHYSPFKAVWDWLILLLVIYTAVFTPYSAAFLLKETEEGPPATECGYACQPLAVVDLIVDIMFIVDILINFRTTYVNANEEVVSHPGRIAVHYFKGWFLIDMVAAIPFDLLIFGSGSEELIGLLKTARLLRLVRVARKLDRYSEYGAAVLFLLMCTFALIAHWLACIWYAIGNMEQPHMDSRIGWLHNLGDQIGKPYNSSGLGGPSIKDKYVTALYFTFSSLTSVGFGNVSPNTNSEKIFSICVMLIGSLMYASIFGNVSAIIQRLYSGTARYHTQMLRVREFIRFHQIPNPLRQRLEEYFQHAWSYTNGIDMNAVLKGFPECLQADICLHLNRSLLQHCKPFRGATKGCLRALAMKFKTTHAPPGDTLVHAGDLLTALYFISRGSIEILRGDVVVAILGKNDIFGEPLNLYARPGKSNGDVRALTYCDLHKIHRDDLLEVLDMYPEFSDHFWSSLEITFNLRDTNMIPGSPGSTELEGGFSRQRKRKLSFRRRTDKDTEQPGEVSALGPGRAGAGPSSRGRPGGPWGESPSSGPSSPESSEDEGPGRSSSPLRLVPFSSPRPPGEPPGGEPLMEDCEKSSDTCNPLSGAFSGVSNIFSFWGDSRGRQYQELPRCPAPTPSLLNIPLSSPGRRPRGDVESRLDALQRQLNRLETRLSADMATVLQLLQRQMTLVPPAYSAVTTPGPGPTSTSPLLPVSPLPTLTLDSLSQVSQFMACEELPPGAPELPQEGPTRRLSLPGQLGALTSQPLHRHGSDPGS

Structure (SMILES)	hERG current change (%, negative = inhibition) at 1uM [%]
N#Cc1cccc(NC(=O)CNC(=O)Cc2ccccc2)c1	11.8
CCN(CC(=O)Nc1cccc(OC)c1)CC(=O)Nc1ccccc1C	7.5
CSCC[C@H](NC(=O)OC(C)(C)C)C(=O)N1CCC(C(=O)N[C@@H](C)C(=O)O)CC1	5.24
O=C1CCCN1c1ccc(S(=O)(=O)Oc2ccc(Cl)cc2)cc1[N+](=O)[O-]	6.06
O=C(O)CCn1cc(-c2ccc(Cl)cc2)nc1-c1ccncc1	12.4
C=CCOC(=O)N1CCN(c2cccc(C(F)(F)F)c2)CC1	18.2
Cc1oc(-c2ccccc2Cl)nc1CN1CCCCC1CO (stereo not drawn)	8.18
O=C(NCc1nnnn1-c1ccc(F)c(F)c1)c1cc2ccccc2o1	-4.13
CC(=O)c1ccc(NC(=O)CN2C(=O)/C(=C/C=C/c3ccccc3)SC2=S)cc1	8.12
CC(Oc1ccc(Cl)cc1)C(=O)Nc1ccc(S(=O)(=O)Nc2nccs2)cc1 (stereo not drawn)	0.577
CCN(CC)C(=O)C(C)N(C#N)c1nc(Cl)nc(N(C)C)n1 (stereo not drawn)	13.7
Clc1cccc(-c2cc3nc4c(c(NCc5ccco5)n3n2)CCCC4)c1	-0.896
CN(C)c1cccc(Oc2nc3c(c(=O)n(C)c(=O)n3C)n2C)c1	5.16
CN1CCN(C(c2ccccn2)c2cc(Cl)c3cccnc3c2O)CC1 (stereo not drawn)	9.92
Cc1nonc1NC(=O)CSc1nnc(-c2ccoc2C)n1-c1cccc(Cl)c1	-58.8
CCn1c(SCC(=O)Nc2ccc(F)cc2)nnc1-c1cnccn1	-6.73
CC(C)[C@H](Nc1ncnc2c1oc1ccccc12)C(=O)O	11.5
O=C(NCc1ccco1)c1nc2nc(-c3cccs3)cc(C(F)(F)F)n2n1	3.1
Cc1cccc(-n2ncc3c(N4CCOCC4)ncnc32)c1	-22.2
CCn1c(SCC(=O)NNC(=O)c2ccccc2)nnc1-c1ccncc1	-3.88
CCOC(=O)CN(Cc1sccc1C)C(=O)Nc1cccc(OC)c1	12.8
COc1cccc(CNc2ccccc2O)c1OCc1ccccc1F	10.6

Structure (SMILES)	hERG current change (%, negative = inhibition) at 1uM [%]
CCc1n[nH]c(=S)n1/N=C/c1cc(Br)c(O)c(OC)c1	11
O=C1C[C@H](NC(=O)OCc2ccccc2)CO1	6.98
Cc1cc2c(=O)n(NC(N)=O)c(C)nc2s1	-0.691
COc1cc(C2CC(=O)N(CC(=O)NCc3ccco3)c3ccccc3S2)cc(OC)c1OC (stereo not drawn)	-4.08
O=C(O)C1(P(=O)(c2ccc(Cl)cc2)c2ccc(Cl)cc2)CCCC1	6.25
O=C(COC(=O)c1ccc(-n2cnnn2)cc1)Nc1cc(Cl)ccc1F	5.9
Cc1[nH]c2ccc(Cl)cc2c(=O)c1CN1CCCC1	5.01
COc1ccc(C(=O)N2CC3(CC(c4cccc([N+](=O)[O-])c4)=NO3)C[C@H]2C(=O)NCC(N)=O)cc1 (stereo partly drawn)	11.3
Cc1ccc(S(=O)(=O)c2ccc(Cl)cc2)cc1S(=O)(=O)N(C)CC(=O)O	14.3
COc1ccc(OCC(=O)Nc2cc(S(=O)(=O)N3CCCCC3)ccc2OC)cc1	-2.4
O=C(O)c1cc(-c2cccnc2)nn1-c1ccccn1	-5.27
O=C(NNC(=S)NC1CCCCC1)c1ccccc1Br	14.1
Cc1ccc(CNC(=O)CN(C(=O)C2(C)CC(=O)N=C3C=CC=CN32)c2cc(C)ccc2C)cc1 (stereo not drawn)	16.7
CCN(CC)S(=O)(=O)c1cccc(C(=O)N[C@H](C(=O)OCC(=O)Nc2ccccc2)C(C)C)c1	7.69
Cc1cc(NC(=O)COC(=O)c2ccc(OC(F)(F)F)cc2)no1	4.75
COc1cc(CN2CCN(S(=O)(=O)c3ccccc3)CC2)cc(OC)c1OC.O=C(O)C(=O)O	0.548
O=C(Nc1nccs1)c1ccc(S(=O)(=O)c2ccccc2)cc1	8.72
C#CC[N+](C)(C)C(C#Cc1ccccc1)CC=C.[Br-] (stereo not drawn)	7.68
CCC(C)(C)C1CCc2[nH]nc(C(=O)N/N=C(\C)c3ccco3)c2C1 (stereo not drawn)	-8.83
Cc1ccc(CC2C(=O)N(c3cc(Cl)ccn3)C(=O)C2C)cc1 (stereo not drawn)	6.69
Cc1ccc2ncccc2c1NC(=S)NC(=O)c1ccccc1	8.38
COc1ccc(CNC(=O)COC(=O)CCN2C(=O)C3CC=CCC3C2=O)cc1OC (stereo not drawn)	10.5

Structure (SMILES)	hERG current change (%, negative = inhibition) at 1uM [%]
O=C(c1ccccn1)N(CC1CCCO1)C1(C(=O)NC2CCCCC2)CCCCC1 (stereo not drawn)	5.42
CS(=O)(=O)N(CCc1ccccc1)CC(=O)Nc1ccc2c(c1)OCO2	2.04
CC(C)CN1C(=O)NC(NS(=O)(=O)c2ccc(N)cc2)(C(F)(F)F)C1=O (stereo not drawn)	9.58
COc1cccc(C(=O)N2C(C(=O)O)CSC2c2ccccc2Cl)c1 (stereo not drawn)	8.61
Cc1ccc(P(=S)(c2ccc(C)o2)N2CCOCC2)o1	3.25
COc1cc(NC(=O)c2ccco2)c(OC)cc1NC(=O)CCC(=O)Nc1cccc(C)c1C	-3.26
COC(=O)COc1ccc(S(=O)(=O)NCc2ccc3c(c2)OCO3)cc1	12
O=C(CN1C2CCCC1CC(NC(=O)C1CCCCC1)C2)NCc1ccc(F)cc1 (stereo not drawn)	-14.9
CCn1nnc(NC(=O)C(c2ccccc2)c2ccccc2)n1	9.69
O=C(NCCN1CCCC1)c1ccc(Cn2c(=S)[nH]c3ccc(Br)cc3c2=O)cc1	1.01
COc1ccc(-c2nnc(-c3cccnc3)o2)cc1OC	-2.29
COCCCNC(=O)CN(c1cccc(Cl)c1)S(C)(=O)=O	6.32
CC(C)N1CCN(Cc2ccc(-c3ccccc3Cl)o2)CC1CCO (stereo not drawn)	-2.59
CCCCNC(=O)C(=O)N/N=C/c1ccc(C(=O)OC)cc1	10.3
O=[N+]([O-])c1ccc(C2=Nc3cc(Cl)ccc3OC2)cc1	31
CS(=O)(=O)N(CC(=O)Nc1c(F)cccc1F)c1cccc([N+](=O)[O-])c1	6.33
CCc1c(O)nc(SCC(=O)Nc2ccccc2)n(-c2ccccc2)c1=O	12.1
CCC(CCCO)CCC[C@H](C)CCC1OCCO1 (stereo partly drawn)	-0.575
CCOc1ccc(NC(=S)/C(=C(\[O-])c2ccc(C)c([N+](=O)[O-])c2)[n+]2ccccc2)cc1	1.23
O=C(CNS(=O)(=O)c1ccc2ccccc2c1)OCc1nnc(-c2ccccc2)o1	13.5
COCCNC(=O)CN1CCOc2ccccc21	8.36
COc1ccc(S(=O)(=O)NCC2CCCN(C(=O)c3cccnc3C)C2)cc1 (stereo not drawn)	14

Structure (SMILES)	hERG current change (%, negative = inhibition) at 1uM [%]
O=C(CN1CCN(Cc2ccccc2)CC1)Nc1ccc(F)c(F)c1.O=C(O)C(=O)O	-21.9
O=S(=O)(/N=C(/c1ccccc1Cl)N1CCOCC1)c1ccccc1	10.9
c1ccc(Cn2ncc3c(Nc4ccccc4)ncnc32)cc1	10.3
CC(NC(=O)c1ccc(Br)s1)C1CCCO1 (stereo not drawn)	9.5
O=C(CSc1ccc(-c2ccco2)nn1)N1CCCC1	7.89
COC(=O)[C@@H]1CCCN1C(=O)c1ccc(OC2CCN(Cc3ccccn3)CC2)cc1	27.3
NNC(=O)c1cccc(COc2ccccc2Br)c1	8.34
CC(=O)c1sc(NC(=O)CCCOc2ccc(Cl)cc2)nc1C	12.8
CCOc1cccc(/C=N/NC(=S)NCCN2CCOCC2)c1O	11.2
C=C(C)[C@H]1CC=C(C)/C(=N/NC(=O)CNc2ccccc2OC)C1	20.6
Cc1cc(C)nc(Nc2n[nH]c(COc3ccccc3)n2)n1	9.69
Cc1ccccc1CNc1ccc(C(CC(N)=O)NC(=O)c2ccc(Br)cc2)cc1[N+](=O)[O-] (stereo not drawn)	10.8
CCOc1ccccc1-c1nc(C(N)=O)c2[nH]c(=O)n(-c3cccc(C)c3)c2n1	7.19
CC(=O)C1=C(C)OC(N)=C(C#N)C1c1cccc([N+](=O)[O-])c1 (stereo not drawn)	12
O=C(c1ccco1)c1nnn(Cc2ccccc2)c1-c1ccccc1	2.97
O=C1c2ccc3c4c(ccc(c24)C(=O)N1c1cccc(O)c1)C(=O)N(c1cccc(O)c1)C3=O	5.14
O=C(NCCN1CCN(c2ccccc2)CC1)Nc1cccc(Br)c1	-9.25
CSc1nc2n(n1)C(c1ccccn1)C1=C(CC(C)(C)CC1=O)N2 (stereo not drawn)	6.46
Cc1ccc(C)c(OCC(O)CN2C(C)CCCC2C)c1.Cl (stereo not drawn)	-34.9
Cc1cccc2c(N=NC(=O)C(C)n3cnc4ccccc4c3=O)c(O)[nH]c12 (stereo not drawn)	-2.25
O=S(=O)(NCC(c1ccccc1)N1CCC(O)CC1)c1ccc(Cl)cc1 (stereo not drawn)	3.21
